Measured values published in PubChem BioAssay AID686979 (National Center for Advancing Translational Sciences (NCATS), 2013).
“And” between values parts separate entries of the source, which are not always exact repeats. Identical values can stand only once. The whole screen tested about 420,000 compounds, of which about 50,000 (12%) were called active. This list was built around the results that the source calls inconclusive (neither active nor inactive); the mix of calls is not that of the screen. The call rests on the fitted dose curve; in most records, active means well fitted inhibition curve with a large enough effect; inconclusive means small, poorly fitted or top-dose-only effect; inactive means flat fitted curve, though single readings scatter. Potencies beside an inconclusive call are fits to weak or partial responses and may not hold up.

Assay: qHTS for Inhibitors of human tyrosyl-DNA phosphodiesterase 1 (TDP1): qHTS in cells in presence of CPT; further: nearly all actives have a fitted effect of over 55% in size
Details: chicken DT40 Tdp1-/-;hTDP1 cells + 20 nM CPT, ATP luminescence, 48 h; activity change, negative = growth inhibition: at 46.2 µM (top of the series)
Outline: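 Chicken DT40 Tdp1-/- cells stably complemented with human TDP1 were seeded at 400 cells/well in medium containing 20 nM camptothecin, exposed to pin-transferred compounds, and grown at 37 °C for at least 48 hr. Viability was read as ATP luminescence.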
On the % scale 0 is the no-effect control and ±100 the full control effect; potency means the concentration at half of the fitted maximal effect; tags describe the fitted curve by direction and shape.

| Structure (SMILES) | Potency | activity change, negative = growth inhibition |
| --- | --- | --- |
| Cc1ccc(C)c2c1c1ccccc1n2C | inactive |  |
| Cc1ccc(NC(=O)c2nc(S(C)(=O)=O)ncc2N(Cc2ccc(C(C)(C)C)cc2)Cc2ccco2)cc1C | inconclusive: 20.6 µM [inhibitor, single point] |  |
| COc1ccc(-c2sc3cc4c(cc3c2-c2ccc(OCCN3CCCCC3)cc2)OCO4)cc1 | active: 16.4 µM |  |
| CN(C)C1=NCCN1CCCC1CCCCC1 | inconclusive: 29.1 µM [inhibitor, single point] |  |
| O=S(=O)(c1ccc(OC(F)(F)F)cc1)N1CCC(c2nnnn2-c2ccc(F)cc2)CC1 | inactive |  |
| CC(C)c1cccc(C(C)C)c1OCCCCCN1CCOCC1 | inconclusive: 29.1 µM [inhibitor, single point] |  |
| COc1ccc(C2=Nc3ccccc3N(C(=O)c3cccnc3)C2C(=O)NC(C)(C)C)cc1 (centres undefined) | inactive |  |
| CCCCOC(=O)c1ccc(NC(=O)CN2C(=O)NC3(CCCCCC3)C2=O)cc1 | active: 10.3 µM |  |
| O=C(Nc1ncc2c(n1)-c1ccccc1OC2)c1ccc(Cl)cc1Cl | inactive |  |
| O=[N+]([O-])c1cccc(-c2cc3ccccc3[nH]2)c1 | inactive |  |
| CCc1cccc(NC(=O)C2CCCN(c3ncnc4onc(-c5ccc(F)cc5)c34)C2)c1 (centres undefined) | active: 13 µM |  |
| COc1ccccc1-n1c(O)c(C=NCc2ccccn2)c2ccccc2c1=O | inconclusive: 20.6 µM [inhibitor, single point] |  |
| CN(Cc1ccccc1F)C(=O)CN1CCN(S(=O)(=O)c2ccc3c(c2)OCCCO3)CC1 | inconclusive: 29.1 µM [inhibitor, single point] |  |
| COc1ccc(-c2nnc(SCC(=O)c3ccco3)n2-c2ccccc2)cc1 | inactive |  |
| CN(CC(O)COc1ccc(OCC(O)CN(C)C2CCCCC2)cc1)C1CCCCC1 (centres undefined) | inconclusive: 23.1 µM [inhibitor, single point] |  |
| CCCC(O)c1nc2ccccc2n1CCCOc1ccc(Cl)cc1 (centres undefined) | active: 3.66 µM |  |
| COc1cc(C(=O)NCC(c2ccc3c(c2)OCO3)N2CCOCC2)cc(OC)c1OC (centres undefined) | active: 11.6 µM |  |
| CCOc1ccc(CCNC(=O)c2cccc(S(=O)(=O)N3CCCC3)c2)cc1OCC | inconclusive: 29.1 µM [inhibitor, single point] |  |
| Cc1ccc(NC(=O)CCNC(=O)c2ccccc2Cl)cc1S(=O)(=O)N1CCCCCC1 | inconclusive: 23.1 µM [inhibitor, partial curve] |  |
| COc1ccc(CCNC(=O)c2ccc(-c3ccc([N+](=O)[O-])cc3)o2)cc1OC | active: 18.4 µM |  |
| COCCn1c(C)cc(C(=O)CSc2nc3ccccc3c(=O)n2C(C)COC)c1C (centres undefined) | active: 20.6 µM |  |
| O=C(CCNC(=O)Cn1cnc2ccccc2c1=O)NCC1COc2ccccc2O1 (centres undefined) | inconclusive: 20.6 µM [inhibitor, single point] |  |
| O=C(Cc1cccc(NC(=O)C2CCCN(C(=O)c3ccccc3)C2)c1)Nc1ccc(C(=O)N2CCOCC2)cc1 (centres undefined) | inactive |  |
| CC1(C)CC(=O)C(N=Nc2ccc(S(=O)(=O)N3CCOCC3)cc2)=C(O)C1 | inactive |  |
| COc1ccc(Cn2c(-c3ccco3)nc3oc4ccccc4c(=O)c3c2=O)cc1 | inactive |  |

| Structure (SMILES) | Potency | activity change, negative = growth inhibition |
| --- | --- | --- |
| CCc1ccc(C2CC(c3ccccc3)n3ncnc3N2)cc1 (centres undefined) | inconclusive: 23.1 µM [inhibitor, single point] |  |
| Cc1ccc(S(=O)(=O)Nc2ccc(C(=O)NCCCN3CCOCC3)cc2)cc1[N+](=O)[O-] | inactive |  |
| CCOC(=O)CSc1nnc(Cc2cc(=O)[nH]c(=O)[nH]2)n1-c1ccc(Cl)cc1 | inconclusive: 10.3 µM [inhibitor, partial curve] |  |
| CC(=O)c1cccc(Nc2nc(-c3cccnc3)cs2)c1 | inconclusive: 5.8 µM [inhibitor, single point] |  |
| CCc1sc(C(=O)Nc2nc(-c3ccccn3)cs2)cc1C | active: 2.91 µM |  |
| Cc1cc(Nc2ccc(Cl)cc2)nc(N)n1 | inconclusive: 25.9 µM [inhibitor, single point] |  |
| CCN1CCSc2ccc(C(=O)NCc3ccc(OC(C)C)cc3)cc21 | inconclusive: 29.1 µM [inhibitor, single point] | inconclusive: -34.3% [inhibitor] |
| Cc1ccc(Nc2nc3ccccc3s2)c(C)c1 | inconclusive: 18.4 µM [inhibitor, single point] |  |
| Cc1ccc(N(CC(=O)NCc2ccccc2)C(=O)c2csnn2)cc1 | inactive |  |
| CC1=C(C(=O)Nc2ccc(Br)cc2)C(c2ccco2)NC(=O)N1 (centres undefined) | active: 23.1 µM |  |
| COc1ccc(N(Cc2cc3ccccc3[nH]c2=O)C(=O)c2cccc(Cl)c2)cc1 | active: 16.4 µM |  |
| CCN1CCN(C(=O)c2cc(COc3ccc(F)c(F)c3)on2)[C@@H](C)C1=O | active: 14.6 µM |  |
| COc1ccc(C2=NN(C(=O)CSc3nc4ccccc4s3)C(c3ccc(OC)cc3)C2)cc1 (centres undefined) | active: 13 µM |  |
| Cn1c(NN)nc2sc3c(c2c1=O)CC(C)(C)OC3 | inconclusive: 29.1 µM [inhibitor, single point] |  |
| CCOc1ccccc1NC(=O)COC(=O)C1COc2ccccc2O1 (centres undefined) | inactive |  |
| Cc1ccc(NC(=O)c2c(C)cc(C)nc2SCC(=O)Nc2ccc(Br)cc2)cc1 | inconclusive: 29.1 µM [inhibitor, single point] |  |
| Clc1cccc(Cl)c1Cn1c(-c2cccnc2Cl)nc2ccccc21 | inconclusive: 29.1 µM [inhibitor, single point] |  |
| CN(c1ccc(-c2csc(NC(=O)C3CC(=O)N(Cc4ccco4)C3)n2)cc1)S(C)(=O)=O (centres undefined) | inconclusive: 23.1 µM [inhibitor, partial curve] |  |
| CC(C)c1ccc(NC2CCCN(C(=O)CCN3Cc4ccccc4C3=O)C2)cc1 (centres undefined) | inconclusive: 18.4 µM [inhibitor, single point] |  |
| N=C(N)SCCc1cccc(CCSC(=N)N)c1 | active: 12.6 µM and active: 16.4 µM |  |
| COc1cc2c(cc1OC)C1CCC3=C([C@H](C)OC3=O)N1CC2 (some centres undefined) |  | inactive: 15.5% [at 9.04 µM] |
| COc1ccc(C2=Nn3c(nnc3-c3cccnc3)SC2)cc1OC | inconclusive: 8.2 µM [inhibitor, partial curve] |  |
| Cc1cc(NC(=O)c2ccc(F)cc2F)n(-c2nc3ccccc3[nH]2)n1 |  | inconclusive: -30.8% [inhibitor] |
| CCc1nc2ccc(C(=O)NCCc3ccccc3OC)cc2nc1CC | inconclusive: 20.6 µM [inhibitor, single point] and inconclusive: 29.1 µM [inhibitor, single point] |  |
| COc1ccc(CCNC(=O)C2CCN(S(=O)(=O)c3cccc4nonc34)CC2)cc1OC | inconclusive: 29.1 µM [inhibitor, single point] |  |

| Structure (SMILES) | Potency | activity change, negative = growth inhibition |
| --- | --- | --- |
| COc1ccc(NC(=O)COC(=O)Cc2ccccc2[N+](=O)[O-])cc1OC | inconclusive: 29.1 µM [inhibitor, single point] |  |
| CCC(c1nnnn1Cc1ccccc1)N(Cc1cc2cc(OC)ccc2[nH]c1=O)CC1CCCO1 (centres undefined) | inconclusive: 9.2 µM [inhibitor, partial curve, poor fit] |  |
| COc1ccccc1Oc1ccc(S(=O)(=O)Nc2cccnc2)cc1 | inconclusive: 18.4 µM [inhibitor, partial curve] |  |
| COc1ccc(-c2ccc(CN3C(CC(C)C)C(=O)N(Cc4cn(CCC5OCCCO5)nn4)CCS3(=O)=O)cc2)cc1OC (centres undefined) | active: 13 µM |  |
| CCC(=O)N1CCc2cc(S(=O)(=O)CCC(=O)N3CCN(c4ccccc4)CC3)ccc21 | inactive |  |
| CC(=O)c1ccc(NC(=O)CSc2nc3ccccc3c(=O)n2CCCN2CCOCC2)cc1 | inconclusive: 29.1 µM [inhibitor, single point] |  |
| COc1cc(=O)n(C)c2ccccc12 | inactive |  |
| O=C(Nc1cccc(F)c1)NC1(C(=O)NCC2CCCO2)CCCCC1 (centres undefined) | inactive |  |
| Cc1cc(C)cc(C(=O)NCC(=O)OCC(=O)NC2CCCc3ccccc32)c1 (centres undefined) | inactive |  |
| Clc1ccc(C2=NN(c3ccccc3)C(c3ccco3)C2)cc1 (centres undefined) | inactive |  |
| Oc1ccc(Oc2ccc(Oc3ccc(O)cc3)cc2)cc1 | active: 5.8 µM |  |
| COCCCNS(=O)(=O)c1ccc2c3c(cccc13)C(=O)S2 | inconclusive: 18.4 µM [inhibitor, single point] |  |
| COc1cccc(CN2CC(C(=O)N(C)CCCC3CCCC3)CCC2=O)c1 (centres undefined) | inconclusive: 13 µM [inhibitor, partial curve] |  |
| N#C/C(=C\c1ccc(O)cc1)C(=O)NCc1ccccc1 | inconclusive: 11.6 µM [inhibitor, partial curve] |  |
| COC(=O)c1cc2c(s1)-c1ccccc1CC2 | inconclusive: 25.9 µM [inhibitor, partial curve, poor fit] |  |
| Cc1ccc(S(=O)(=O)N2CCCCC2)cc1NC(=O)Cc1c[nH]c2ccccc12 | inconclusive: 29.1 µM [inhibitor, single point] |  |
| O=C(N/N=C/c1cccc2ccccc12)c1ccncc1 | inactive |  |
| CCCCN1CC(c2nc3ccccc3n2CCCCOc2cc(C)ccc2C)CC1=O (centres undefined) | active: 16.4 µM |  |
| CN(CCOc1ccccc1)C(=O)CCc1c[nH]c2ccccc12 | inactive |  |
| COC1C(CO)OC(n2cnc3c(=S)nc(N)[nH]c32)C1O (centres undefined) | active: 16.4 µM |  |
| COc1ccc(CNC(=O)CSc2nnnn2Cc2ccccc2)cc1 | inconclusive: 20.6 µM [inhibitor, single point] |  |
| CC(C)(C)Cc1nnc(NC(=O)CSc2ccccc2)s1 | inconclusive: 16.4 µM [inhibitor, single point] |  |
| Cc1ccc(NC(=O)CC2SC3=NCCCN3C2=O)c(C)c1 (centres undefined) | active: 9.2 µM |  |
